The values that follow come from the RNAGym collection of RNA variant scans (doi:10.1073/pnas.2313332121).

Variants at the floor of the assay are shown more often than the library holds them. Some results are limits rather than exact numbers.

First the molecules themselves.
B1: TPR 5TU (parent)
chain: GGAUCUUCUCGAUCUAACAAAAAAGACAAAUCUGCCACAAAGCUUGAGAGCAUCUUCGGAUGCAGAGGCGGCAGCCUUCGGUGGCGCGAUAGCGCCAACGUUCUCAACUAUGACACGCAAAACGCGUGCUCCGUUGAAUGGAGUUUAUCAUG

The data set covers variants of B1. The data set can be described thus: polymerase ribozyme fitness, log enrichment relative to wild type (log ratio); higher = more active; in vitro selection for triplet polymerase activity. In a few lines:
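Genotype fitness is the logarithm of its enrichment divided by wild-type enrichment, using inverse-variance-weighted averages of replicates. That logarithm is base 2. Enrichment was measured by Illumina sequencing of input and output libraries from one triplicate in vitro selection round, with frozen incubation at −7 °C, on PCR-built, transcribed mutant libraries of each subunit of a heterodimeric triplet polymerase ribozyme, retaining genotypes with ≥10 input reads and ≥1 read per output.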
Consider GGAUCUUCUCGAUCUAACAACAAAGACAAAUCUGCCACAAAGCUUGAGAGCAUCUUCGGAAGCAGAGGCAGCAGCCUUCGGUGUCGCGAUAGCGCCAACGUUCUCAACUAUGACACGCAAAACGCGUGCUCCGUUGAAUGGAGUUUCUCAUG [A21C U61A G70A G84U A147C], for which the “polymerase ribozyme fitness (log ratio)” value was no more than -4.2. The same measure for GGAUCUUCUCGAUCUAACAAGUAAUACAAAUCUGCCACAAAGCUUGAGGGCAUCUUAGGAUGCAGAGGCGGCAGCCUUCGGUCGCGCGAUAGCGCCAACGUUCUCAACUAUGACACGCAAAACGCGUGUUCCGUUGAAUGGAGUUUAUCAUG [A21G A22U G25U A49G C57A G83C C129U]: no more than -4.2; for GGAUCUUCUCGAUCUAACAAGAAAGACAAAUCUGCCACAUAGCUUGAGAACAUCUUCGGAUGCAGAGGCGGCAGCCUUCGGUGGCGCGAUAGCACCAACGUUCUCAACUAUGACACGCAAAACGCAUGCUCCGUUGAAUGGAGUUUAUCAUG [A21G A40U G50A G94A G126A]: no more than -4.2.

For the variant GGAUCUUCUCGAUCUAACAACAAAGACAAAUCUGCCACAAAGCUAGAAAGCAACUUCGGAUGCAGAGGCGGCAGCUUUCGGUGGCGCGAUAGCGCCAACGUUCUCAACUAUGACACGCGAAACGCGUGCUCCGUUGAAUGGAGUUUAUCAUG [A21C U45A G48A U53A C76U A119G], the “polymerase ribozyme fitness (log ratio)” value was no more than -4.2. Take GGAUCUUCUCGAUCUAACAACAAAGACAAAUCUGCCACAAAGCUUGAGAGCAUCGUCGGAUGCAGAGGCGGCAGCCUUCGGUUGCGCGAUAGCGCCAACGUUCUCAACUAUGACACGCAAAACGCGUGCUCCGUUGAAUGGAGUUUAUCAUG [A21C U55G G83U]: the “polymerase ribozyme fitness (log ratio)” value was -0.166. Take GGAUCUUCUCGAUCUAACAACAAAGACAAAUCUGCCACAAAGCUUGAGAGCAUCUUCGGAUGCAGAGACGGCAGCCUUCGGUGGCGCGAUAGCGCCAACGUGCUCAACUAGGACACGCAAAACGCGUGCUCCGUUAAAUUGAGUUAAUCAUG [A21C G68A U102G U111G G136A G140U U146A]: the “polymerase ribozyme fitness (log ratio)” value was no more than -4.2. Regarding GGAUCUUCUCGAUCUAACAACAAAGACAAAUCUGCCACAAAGCUUGAGAGCAUCUUCGGAUGCAGAGGCGGCAGCCUUCGGUGACGCGAUAGCGACAACGUUCCCAACUAUGACACGCAAAACGCGUGCUCCGUUGAAUGGAGUUUAUCAUG [A21C G84A C95A U104C], the “polymerase ribozyme fitness (log ratio)” value was -0.91. Consider GGAUCUUCUCGAUCUAACAACAAAGACAAAUCUGCCACAAAGCUUGAGAGCAUCUUCGGAUGCAGAGGCGGCAGCCUUCGGUGGCGCGAUAGCCCCAACGUUCUCAACUAUGACAUGCAAAACGCGUGCUCCGUUGAAUGGAGUUUAUCAUG [A21C G94C C116U], for which the “polymerase ribozyme fitness (log ratio)” value was determined as 0.209.

Regarding GGAUCUUCUCGAUCUAACAAGAAAGACAAAUCUGCCACAAAGCUUGAGAGCAUCUUCGGAUGCAGAGGCGGCAGCCUUCGGUGGCGCGAUAGCGCCAUCGUUCUCAACUAUGACACGCAAAACGCGUGAUCCGUUGAAUGGAGAUUAUCAUG [A21G A98U C129A U144A], the “polymerase ribozyme fitness (log ratio)” value is -3.61. As to GGAUCUUCUCGAUCUAACAAGAAAGACCAAUCUGCCACAAAGCUUGAGAGCAUCUUCGGAUGCAGAGGCGGCAGCCUUCGGUGGCGUGAUAGCGCCAACGUUCUCAACUAUGACACGCAAAACGCGUGCUCCGUUCAAUGGAGUUUAUCAUG [A21G A28C C87U G136C], the “polymerase ribozyme fitness (log ratio)” value was no more than -4.2.

In the case of GGAUCUUCUCGAUCUAACAAGACAGACAAAUCUGCCACAAAGCUUGAGAGCAUCUUCGGAUGCAGAGGCGGCAGUCUUCGGUGGCGCGAUAGCACCAACGUUCUCAACUAUGACACGCAAAACGCGUGCUCCGUUGAAUGGAGUUUAUCUUG [A21G A23C C75U G94A A150U], the “polymerase ribozyme fitness (log ratio)” value was no more than -4.2. The same measure for GGAUCUUCUCGAUCUAACAACAAAGACAAAUCUGCCACAAAGCUUGAGAGCAUCUUCGCAUGCAGAGGCGGCAGCCUUCGGUGGUGCGAUAGCGCCAACCUUCUCAACUAUGACACGCAAAACGCGUGCACCGUUAAAUGGAGGUUAUCAUG [A21C G59C C85U G100C U130A G136A U144G]: no more than -4.2; for GGAUCUUCUCGAUCUAACAACAAAGACAAAUCUGCCACAAAGCUUGAGAGCAUCUUCGGAUGCAGAGGCGGCAGCCAUCGGUGGCGCGAUAGCGCCAGCGUUCUCAACUAUGACACGCAAAACGCGUGCUCAGUUGAAUGGAUUUUAUCAUG [A21C U77A A98G C132A G143U]: no more than -4.2. Regarding GGAUCUUCUCGAUCUAACAAGAAAGACAAAUCUGCCACAAAGCUUGAGAGCAUCUUCGGAUGCAGAGGCGGCAGCCUUCGGUGGCGCGAUAGCGCCAACGUUCUCCACUAUGACACGCAAAACGCGUGCUCCGUUGAAUGGAGUUUAUCAUG [A21G A106C], the “polymerase ribozyme fitness (log ratio)” value was -0.348. With GGAUCUUCUCGAUCUAACAAGAAAGAAAAAUCUGCCACAAAGCUUGAGAGCAUCUUCGGAUGCAGAGGCCGCAGCCUUCGGUGGCGCGAUUGCGCCAACGUUCUCAACUAUGACACGCAAAACGCGUGCUCCGUUGAAUGGAGUUUAUCAUG [A21G C27A G70C A91U], the “polymerase ribozyme fitness (log ratio)” value is no more than -4.2. For the variant GGAUCUUCUCGAUCUAACAACAAAGACAAAGCUGCAACAAAGCUUGAGAGCAUCUUGGGAUGCAGAGGCGGCAGCCUUCGGUGGAGCGAUAGCGCCAACGUUCUCAACUAUGACACGCCAAACGCGUGCUCCGUUGAAUGGAGUUUAUCAUG [A21C U31G C36A C57G C85A A119C], the “polymerase ribozyme fitness (log ratio)” value was no more than -4.2. GGAUCUUCUCGAUCUAACAACAAAGACAAAUCUGCCACAAAGCUUGAGAGCAUCUCCGGAUGCAGAGGCGGCAGCCUUCGGUGGCGCGAUUGCGCUAACGUUGUCAACUUUGACACGCAAAACGCGUGCUCCGUUGAAUGGAAUUUAUCAUG [A21C U56C A91U C96U C103G A110U G143A]: the “polymerase ribozyme fitness (log ratio)” value is no more than -4.2. On to GGAUCUUCUCGAUCUAACAAGAAAGAAAAAUCUGCCACAAAGCUUGAGAGCAUCUUCGGAUGCAGAGGCGGCAGCCUUCGGUGGCGCGAUAGCGCCAACGUUCUCAACUAUGACACGCAAAACGCGUGCUCCGUUGAAUGGAGUUUAUCAUG [A21G C27A], for which the “polymerase ribozyme fitness (log ratio)” value is -3.89. On to GGAUCUUCUCGAUCUAACAACAAAGACAAAUCUGCCACAAAGCUUGAGAGCAUCUUCGGAAGCAGAGGCGGCAACCUUCGGCGGCGCGAUGGCGCCAACGUUCUCAACUAUGACACGCAACACGCGUGCUCCGUUAAAUGCAGUUUAUCAUG [A21C U61A G74A U82C A91G A121C G136A G141C], for which the “polymerase ribozyme fitness (log ratio)” value was no more than -4.2.
